Experimental data as given in the supplement of paper PMC11876631.
± gives the standard deviation of the averaged measurements. Laboratory Escherichia coli strains with one amino-acid change in an essential protein, pooled on minimal glucose agar with carbenicillin or gentamicin at twice the control MIC (plus kanamycin and chloramphenicol for the plasmids), 48 h. Fold change of barcode share against drug-free plates; higher = less susceptible. Active = above 20 in both replicates (the paper's putatively resistant). '<' = one read or none on drug, '>' = one read or none on a drug-free plate. Shares are relative, so most strains fall below 1 when a few take over. Listed are strains with at least 15 reads on both drug-free plates, and hits; most hits rest on fewer reference reads. Replicate rank correlation about 0.5. Edits are read from barcodes.

B1: purH V21D (protein)
chain: MQQRRPVRRALLSVSDKAGIDEFAQALSARGVELLSTGGTARLLAEKGLPVTEVSDYTGFPEMMDGRVKTLHPKVHGGILGRRGQDDAIMEEHQIQPIDMVVVNLYPFAQTVAREGCSLEDAVENIDIGGPTMVRSAAKNHKDVAIVVKSSDYDAIIKEMDDNEGSLTLATRFDLAIKAFEHTAAYDSMIANYFGSMVPAYHGESKEAAGRFPRTLNLNFIKKLDMRYGENSHQQAAFYIEENVKEASVATATQVQGKALSYNNIADTDAALECVKEFAEPACVIVKHANPCGVAIGNSILDAYDRAYKTDPTSAFGGIIAFNRELDAETAQAIISRQFVEVIIAPSASEEALKITAAKQNVRVLTCGQWGERVPGLDFKRVNGGLLVQDRDLGMVGAEELRVVTKRQPSEQELRDALFCWKVAKFVKSNAIVYAKNNMTIGIGAGQMSRVYSAKIAGIKAADEGLEVKGSSMASDAFFPFRDGIDAAAAAGVTCVIQPGGSIRDDEVIAAADEHGIAMLFTDMRHFRH
B2: purH V396A (protein)
chain: MQQRRPVRRALLSVSDKAGIVEFAQALSARGVELLSTGGTARLLAEKGLPVTEVSDYTGFPEMMDGRVKTLHPKVHGGILGRRGQDDAIMEEHQIQPIDMVVVNLYPFAQTVAREGCSLEDAVENIDIGGPTMVRSAAKNHKDVAIVVKSSDYDAIIKEMDDNEGSLTLATRFDLAIKAFEHTAAYDSMIANYFGSMVPAYHGESKEAAGRFPRTLNLNFIKKLDMRYGENSHQQAAFYIEENVKEASVATATQVQGKALSYNNIADTDAALECVKEFAEPACVIVKHANPCGVAIGNSILDAYDRAYKTDPTSAFGGIIAFNRELDAETAQAIISRQFVEVIIAPSASEEALKITAAKQNVRVLTCGQWGERVPGLDFKRVNGGLLVQDRDLGMAGAEELRVVTKRQPSEQELRDALFCWKVAKFVKSNAIVYAKNNMTIGIGAGQMSRVYSAKIAGIKAADEGLEVKGSSMASDAFFPFRDGIDAAAAAGVTCVIQPGGSIRDDEVIAAADEHGIAMLFTDMRHFRH
B3: purH V21P (protein)
chain: MQQRRPVRRALLSVSDKAGIPEFAQALSARGVELLSTGGTARLLAEKGLPVTEVSDYTGFPEMMDGRVKTLHPKVHGGILGRRGQDDAIMEEHQIQPIDMVVVNLYPFAQTVAREGCSLEDAVENIDIGGPTMVRSAAKNHKDVAIVVKSSDYDAIIKEMDDNEGSLTLATRFDLAIKAFEHTAAYDSMIANYFGSMVPAYHGESKEAAGRFPRTLNLNFIKKLDMRYGENSHQQAAFYIEENVKEASVATATQVQGKALSYNNIADTDAALECVKEFAEPACVIVKHANPCGVAIGNSILDAYDRAYKTDPTSAFGGIIAFNRELDAETAQAIISRQFVEVIIAPSASEEALKITAAKQNVRVLTCGQWGERVPGLDFKRVNGGLLVQDRDLGMVGAEELRVVTKRQPSEQELRDALFCWKVAKFVKSNAIVYAKNNMTIGIGAGQMSRVYSAKIAGIKAADEGLEVKGSSMASDAFFPFRDGIDAAAAAGVTCVIQPGGSIRDDEVIAAADEHGIAMLFTDMRHFRH
B4: purH M100W (protein)
chain: MQQRRPVRRALLSVSDKAGIVEFAQALSARGVELLSTGGTARLLAEKGLPVTEVSDYTGFPEMMDGRVKTLHPKVHGGILGRRGQDDAIMEEHQIQPIDWVVVNLYPFAQTVAREGCSLEDAVENIDIGGPTMVRSAAKNHKDVAIVVKSSDYDAIIKEMDDNEGSLTLATRFDLAIKAFEHTAAYDSMIANYFGSMVPAYHGESKEAAGRFPRTLNLNFIKKLDMRYGENSHQQAAFYIEENVKEASVATATQVQGKALSYNNIADTDAALECVKEFAEPACVIVKHANPCGVAIGNSILDAYDRAYKTDPTSAFGGIIAFNRELDAETAQAIISRQFVEVIIAPSASEEALKITAAKQNVRVLTCGQWGERVPGLDFKRVNGGLLVQDRDLGMVGAEELRVVTKRQPSEQELRDALFCWKVAKFVKSNAIVYAKNNMTIGIGAGQMSRVYSAKIAGIKAADEGLEVKGSSMASDAFFPFRDGIDAAAAAGVTCVIQPGGSIRDDEVIAAADEHGIAMLFTDMRHFRH
B5: purH V102A (protein)
chain: MQQRRPVRRALLSVSDKAGIVEFAQALSARGVELLSTGGTARLLAEKGLPVTEVSDYTGFPEMMDGRVKTLHPKVHGGILGRRGQDDAIMEEHQIQPIDMVAVNLYPFAQTVAREGCSLEDAVENIDIGGPTMVRSAAKNHKDVAIVVKSSDYDAIIKEMDDNEGSLTLATRFDLAIKAFEHTAAYDSMIANYFGSMVPAYHGESKEAAGRFPRTLNLNFIKKLDMRYGENSHQQAAFYIEENVKEASVATATQVQGKALSYNNIADTDAALECVKEFAEPACVIVKHANPCGVAIGNSILDAYDRAYKTDPTSAFGGIIAFNRELDAETAQAIISRQFVEVIIAPSASEEALKITAAKQNVRVLTCGQWGERVPGLDFKRVNGGLLVQDRDLGMVGAEELRVVTKRQPSEQELRDALFCWKVAKFVKSNAIVYAKNNMTIGIGAGQMSRVYSAKIAGIKAADEGLEVKGSSMASDAFFPFRDGIDAAAAAGVTCVIQPGGSIRDDEVIAAADEHGIAMLFTDMRHFRH
B6: purH V123W (protein)
chain: MQQRRPVRRALLSVSDKAGIVEFAQALSARGVELLSTGGTARLLAEKGLPVTEVSDYTGFPEMMDGRVKTLHPKVHGGILGRRGQDDAIMEEHQIQPIDMVVVNLYPFAQTVAREGCSLEDAWENIDIGGPTMVRSAAKNHKDVAIVVKSSDYDAIIKEMDDNEGSLTLATRFDLAIKAFEHTAAYDSMIANYFGSMVPAYHGESKEAAGRFPRTLNLNFIKKLDMRYGENSHQQAAFYIEENVKEASVATATQVQGKALSYNNIADTDAALECVKEFAEPACVIVKHANPCGVAIGNSILDAYDRAYKTDPTSAFGGIIAFNRELDAETAQAIISRQFVEVIIAPSASEEALKITAAKQNVRVLTCGQWGERVPGLDFKRVNGGLLVQDRDLGMVGAEELRVVTKRQPSEQELRDALFCWKVAKFVKSNAIVYAKNNMTIGIGAGQMSRVYSAKIAGIKAADEGLEVKGSSMASDAFFPFRDGIDAAAAAGVTCVIQPGGSIRDDEVIAAADEHGIAMLFTDMRHFRH
B7: purH V396D (protein)
chain: MQQRRPVRRALLSVSDKAGIVEFAQALSARGVELLSTGGTARLLAEKGLPVTEVSDYTGFPEMMDGRVKTLHPKVHGGILGRRGQDDAIMEEHQIQPIDMVVVNLYPFAQTVAREGCSLEDAVENIDIGGPTMVRSAAKNHKDVAIVVKSSDYDAIIKEMDDNEGSLTLATRFDLAIKAFEHTAAYDSMIANYFGSMVPAYHGESKEAAGRFPRTLNLNFIKKLDMRYGENSHQQAAFYIEENVKEASVATATQVQGKALSYNNIADTDAALECVKEFAEPACVIVKHANPCGVAIGNSILDAYDRAYKTDPTSAFGGIIAFNRELDAETAQAIISRQFVEVIIAPSASEEALKITAAKQNVRVLTCGQWGERVPGLDFKRVNGGLLVQDRDLGMDGAEELRVVTKRQPSEQELRDALFCWKVAKFVKSNAIVYAKNNMTIGIGAGQMSRVYSAKIAGIKAADEGLEVKGSSMASDAFFPFRDGIDAAAAAGVTCVIQPGGSIRDDEVIAAADEHGIAMLFTDMRHFRH
B8: purH V396Q (protein)
chain: MQQRRPVRRALLSVSDKAGIVEFAQALSARGVELLSTGGTARLLAEKGLPVTEVSDYTGFPEMMDGRVKTLHPKVHGGILGRRGQDDAIMEEHQIQPIDMVVVNLYPFAQTVAREGCSLEDAVENIDIGGPTMVRSAAKNHKDVAIVVKSSDYDAIIKEMDDNEGSLTLATRFDLAIKAFEHTAAYDSMIANYFGSMVPAYHGESKEAAGRFPRTLNLNFIKKLDMRYGENSHQQAAFYIEENVKEASVATATQVQGKALSYNNIADTDAALECVKEFAEPACVIVKHANPCGVAIGNSILDAYDRAYKTDPTSAFGGIIAFNRELDAETAQAIISRQFVEVIIAPSASEEALKITAAKQNVRVLTCGQWGERVPGLDFKRVNGGLLVQDRDLGMQGAEELRVVTKRQPSEQELRDALFCWKVAKFVKSNAIVYAKNNMTIGIGAGQMSRVYSAKIAGIKAADEGLEVKGSSMASDAFFPFRDGIDAAAAAGVTCVIQPGGSIRDDEVIAAADEHGIAMLFTDMRHFRH
B9: purH M100A (protein)
chain: MQQRRPVRRALLSVSDKAGIVEFAQALSARGVELLSTGGTARLLAEKGLPVTEVSDYTGFPEMMDGRVKTLHPKVHGGILGRRGQDDAIMEEHQIQPIDAVVVNLYPFAQTVAREGCSLEDAVENIDIGGPTMVRSAAKNHKDVAIVVKSSDYDAIIKEMDDNEGSLTLATRFDLAIKAFEHTAAYDSMIANYFGSMVPAYHGESKEAAGRFPRTLNLNFIKKLDMRYGENSHQQAAFYIEENVKEASVATATQVQGKALSYNNIADTDAALECVKEFAEPACVIVKHANPCGVAIGNSILDAYDRAYKTDPTSAFGGIIAFNRELDAETAQAIISRQFVEVIIAPSASEEALKITAAKQNVRVLTCGQWGERVPGLDFKRVNGGLLVQDRDLGMVGAEELRVVTKRQPSEQELRDALFCWKVAKFVKSNAIVYAKNNMTIGIGAGQMSRVYSAKIAGIKAADEGLEVKGSSMASDAFFPFRDGIDAAAAAGVTCVIQPGGSIRDDEVIAAADEHGIAMLFTDMRHFRH
B10: purH V396W (protein)
chain: MQQRRPVRRALLSVSDKAGIVEFAQALSARGVELLSTGGTARLLAEKGLPVTEVSDYTGFPEMMDGRVKTLHPKVHGGILGRRGQDDAIMEEHQIQPIDMVVVNLYPFAQTVAREGCSLEDAVENIDIGGPTMVRSAAKNHKDVAIVVKSSDYDAIIKEMDDNEGSLTLATRFDLAIKAFEHTAAYDSMIANYFGSMVPAYHGESKEAAGRFPRTLNLNFIKKLDMRYGENSHQQAAFYIEENVKEASVATATQVQGKALSYNNIADTDAALECVKEFAEPACVIVKHANPCGVAIGNSILDAYDRAYKTDPTSAFGGIIAFNRELDAETAQAIISRQFVEVIIAPSASEEALKITAAKQNVRVLTCGQWGERVPGLDFKRVNGGLLVQDRDLGMWGAEELRVVTKRQPSEQELRDALFCWKVAKFVKSNAIVYAKNNMTIGIGAGQMSRVYSAKIAGIKAADEGLEVKGSSMASDAFFPFRDGIDAAAAAGVTCVIQPGGSIRDDEVIAAADEHGIAMLFTDMRHFRH

Molecular target: Escherichia coli (laboratory strain)
Experiment: barcode share on antibiotic plates over drug-free plates; higher = less susceptible
Conditions: antibiotic: carbenicillin; 2× MIC (3.1 µg/mL)
Experimental: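 A pool of E. coli strains, each edited to carry one amino-acid change in an essential protein, was grown for 48 h on minimal glucose agar with or without antibiotic; strain barcodes were sequenced; mean of two replicates.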

Protein	fold change of barcode share
B1	0.498 ± 0.15
B2	0.293 ± 0.0045
B3	0.906 ± 0.19
B4	0.999 ± 0.32
B5	0.211 ± 0.045
B6	0.176 ± 0.0068
B7	0.358 ± 0.22
B8	0.375 ± 0.19
B9	0.418 ± 0.15
B10	0.274 ± 0.13

Same assay, conditions: antibiotic: gentamicin; 2× MIC (MIC 0.45 µg/mL)

Protein	fold change of barcode share
B1	0.0113 ± 0.0054
B2	0.00665 ± 0.0056
B3	0.0183 ± 0.016
B5	< 0.0108
B6	< 0.00389
B7	0.0108 ± 0.0073
B8	0.00524 ± 0.0028
B9	< 0.0042
B10	< 0.00357
